Assay results reported in the supplement of paper PMC4723716.
± gives the uncertainty stated by the source. Whole data set: some 9,900 compounds, median “viability index relative to DMSO control” near 1, cut for the lowest 2% near 0.85. Some of the results follow.

Test system: Plasmodium falciparum NF54 stage V gametocytes
Experiment: viability index relative to DMSO control (fraction); higher = less gametocyte killing
Conditions: 2.5 µM, library set: Broad Institute DOS, incubation time: 72 h
Procedure, shortened: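 P. falciparum NF54 stage V gametocytes (serum-free medium, 0.75% gametocytemia, 1.25% hematocrit) were exposed to compound at 2.5 µM for 72 hr at 37°C under low oxygen, then stained with MitoTracker Red CMXRos and saponin for one to two hours. Red particles of 20–70 µm2 in one field per well were counted, and the viability index is that count scaled to the plate mean of solvent-only wells.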

Q: Which viability index does the source give for `O=C(Nc1cccc(F)c1)N1CCCCN2[C@@H](CO)[C@H](c3ccc(C#Cc4cccnc4)cc3)[C@@H]2C1` here?
A: Its viability index is 1.05 ± 0.075.

Q: Which viability index does the source give for `O=C1C[C@H](c2ccccc2)C(=O)N[C@@H](c2ccccc2)C/C=C\C[C@H](c2ccccc2)N1` here?
A: The viability index was 0.922 ± 0.035.

Q: With `O=C(C[C@@H]1CC[C@@H](NS(=O)(=O)c2ccccc2F)[C@H](CO)O1)NCCCN1CCOCC1` as the compound, how does the viability index read?
A: The viability index was 0.969 ± 0.062.

Q: For `COc1cccc(CN2C[C@]3(CN(C)C3)c3c([C@@H]2CO)n(C)c2cc(OC)ccc32)c1`, which viability index is on record?
A: Its viability index is 1.01 ± 0.029.

Q: How did the viability index turn out when `CN1C(=O)c2cc(NC(=O)Cc3cccs3)ccc2OC[C@H]2O[C@@H](CC(=O)NCCc3ccncc3)CC[C@@H]21` was run?
A: Its viability index is 1.14 ± 0.052.

Q: `CCC(=O)N1CC2(C1)[C@@H](c1ccc(-c3ccccc3C)cc1)[C@H](CO)N2C(=O)CC` was tested. Which viability index did it give?
A: The viability index was 1.09 ± 0.12.

Q: `CO[C@@H]1CN(C)C(=O)c2cc(NC(=O)NC3CCCCC3)ccc2OC[C@H](C)N(CC2CCOCC2)C[C@H]1C` was tested. Which viability index did it give?
A: Its viability index is 1.11 ± 0.066.

Q: For `COc1cccc(NC(=O)N2CC(=O)N3[C@H](CO)[C@@H](c4ccc(C#CCC5CCCC5)cc4)[C@H]3C2)c1`, which viability index is on record?
A: The viability index was 1.04 ± 0.1.

Q: Which viability index does the source give for `CO[C@H]1CN(C)C(=O)c2cc(NS(C)(=O)=O)ccc2OC[C@H](C)N(Cc2cncnc2)C[C@@H]1C` here?
A: Its viability index is 1.04 ± 0.023.

Q: How did the viability index turn out when `O=C([C@@H]1[C@@H](CO)[C@@H]2Cn3c(ccc(C4=CCCCC4)c3=O)[C@H]1N2Cc1nccs1)N1CCCCC1` was run?
A: The viability index was 1.03 ± 0.083.

Q: Which viability index does the source give for `O=C(C[C@H]1C[C@H]2c3cc(NC(=O)CC4CC4)ccc3O[C@H]2[C@@H](CO)O1)NCC1CC1` here?
A: The viability index was 1.14 ± 0.028.

Q: `CC(=O)N1CC2(C1)[C@H](c1ccccc1)[C@@H](CO)N2C(=O)c1cnccn1` was tested. Which viability index did it give?
A: The viability index was 1.09 ± 0.025.

Q: `COc1ccc2c3c([nH]c2c1)[C@@H](CO)N(C[C@]31CN(CC2CC2)C1)C(=O)CN(C)C` was tested. Which viability index did it give?
A: The viability index was 0.939 ± 0.018.

Q: How did the viability index turn out when `O=C(Nc1ccc2c(c1)[C@@H]1C[C@@H](CC(=O)N3CCOCC3)O[C@@H](CO)[C@@H]1O2)Nc1ccccc1F` was run?
A: The viability index was 1.07 ± 0.041.

Q: With `COc1ccc2c3c([C@@H](CO)N(C[C@]33CCN(Cc4ccccc4OC)CC3)C(C)=O)n(C)c2c1` as the compound, how does the viability index read?
A: The viability index was 0.916 ± 0.0097.

Q: How did the viability index turn out when `CCC(=O)N1C[C@]2(CCN(Cc3ccc(Cl)cc3)CC2)c2c([C@@H]1CO)n(C)c1cc(OC)ccc21` was run?
A: Its viability index is 0.96 ± 0.11.

Q: For `O=C(CN1CCOCC1)N[C@@H]1CC[C@H](CCn2cc(C3CC3)nn2)O[C@H]1CO`, which viability index is on record?
A: Its viability index is 1.15 ± 0.1.

Q: With `OC[C@@H]1[C@@H](c2ccc(-c3cccnc3)cc2)[C@@H]2CN(Cc3ccccn3)CCCCN12` as the compound, how does the viability index read?
A: Its viability index is 0.737 ± 0.12.

Q: Which viability index does the source give for `CCC(=O)N1CC2(C1)[C@H](c1ccc(-c3cccc(C)c3)cc1)[C@@H](CO)N2S(C)(=O)=O` here?
A: Its viability index is 1.07 ± 0.017.

Q: For `C[C@H](CO)N1C[C@H](C)[C@H](CN(C)C(=O)Nc2ccc(C(F)(F)F)cc2)OCCCC[C@H](C)Oc2ccc(NS(=O)(=O)c3cn(C)cn3)cc2C1=O`, which viability index is on record?
A: The viability index was 1.058 ± 0.0083.

Q: For `COc1ccccc1-c1ccccc1[C@H]1[C@@H](C#N)N(C(=O)C2CCOCC2)[C@H]1CO`, which viability index is on record?
A: The viability index was 1.09 ± 0.085.

Q: With `C[C@H](CO)N1C[C@H](C)[C@H](CN(C)C(=O)Nc2ccc3c(c2)OCO3)Oc2c(NC(=O)c3nc4ccccc4s3)cccc2C1=O` as the compound, how does the viability index read?
A: The viability index was 0.987 ± 0.021.

Q: With `CN(C)CC(=O)N[C@H]1CC[C@H](CCNC(=O)C2CCC2)O[C@H]1CO` as the compound, how does the viability index read?
A: Its viability index is 1.07 ± 0.13.

Q: For `CO[C@@H]1CN(C)C(=O)c2ccc(NC(=O)c3ccno3)cc2OC[C@H](C)N(S(C)(=O)=O)C[C@H]1C`, which viability index is on record?
A: Its viability index is 1.16 ± 0.033.

Q: For `CN1C(=O)c2cc(NC(=O)c3ccc(F)c(F)c3)ccc2OC[C@H]2O[C@@H](CC(=O)N3CCCCC3)CC[C@@H]21`, which viability index is on record?
A: The viability index was 1.02 ± 0.079.

Q: For `COc1ccc(C#Cc2ccc3c(c2)[C@H]2[C@H](CCN2Cc2nccs2)[C@@H](CO)N3)cc1`, which viability index is on record?
A: The viability index was 1.04 ± 0.087.

Q: With `C[C@@H]1CCCn2nncc2COCCNC1=O` as the compound, how does the viability index read?
A: Its viability index is 1.05 ± 0.0094.

Q: How did the viability index turn out when `CS(=O)(=O)N1[C@H](C#N)[C@H](c2ccc(-c3ccccc3F)cc2)[C@H]1CO` was run?
A: Its viability index is 1.14 ± 0.048.

Q: With `CS(=O)(=O)Nc1ccc2c(c1)[C@@H]1C[C@H](CC(=O)NCCc3ccccc3)O[C@H](CO)[C@@H]1O2` as the compound, how does the viability index read?
A: The viability index was 0.977 ± 0.079.

Q: With `COc1ccc2c3c([nH]c2c1)[C@@H](CO)N(C[C@]31CCN(CC1)C(=O)c1ccccc1)C(=O)CC1CC1` as the compound, how does the viability index read?
A: The viability index was 1 ± 0.14.

Q: For `CN(C)CCCNC(=O)C[C@@H]1CC[C@H]2[C@@H](COC[C@@H](O)CN2Cc2cccc(C(F)(F)F)c2)O1`, which viability index is on record?
A: Its viability index is 1.07 ± 0.11.

Q: With `CC(C)C#Cc1ccc([C@H]2[C@@H](C#N)N(C(=O)c3cccc(F)c3)[C@H]2CO)cc1` as the compound, how does the viability index read?
A: Its viability index is 1.11 ± 0.027.

Q: With `C[C@H]1CN([C@@H](C)CO)C(=O)c2ccccc2-c2ccccc2CO[C@H]1CN(C)C(=O)[C@@H]1CCCN1C` as the compound, how does the viability index read?
A: The viability index was 1.06 ± 0.022.

Q: With `CCC(=O)N[C@H]1CC[C@H](CC(=O)NCc2ccccc2F)O[C@H]1CO` as the compound, how does the viability index read?
A: Its viability index is 1.11 ± 0.091.

Q: For `CCCC(=O)Nc1ccc2c(c1)C(=O)N(C)[C@H]1CC[C@@H](CC(=O)NCc3cccc(F)c3)O[C@@H]1CO2`, which viability index is on record?
A: The viability index was 0.993 ± 0.055.

Q: With `CC(C)NC(=O)Nc1ccc2c(c1)C(=O)N([C@@H](C)CO)C[C@@H](C)[C@H](CN(C)C(=O)C1CCCCC1)OCCCC[C@@H](C)O2` as the compound, how does the viability index read?
A: The viability index was 1.126 ± 0.0012.

Q: Which viability index does the source give for `OC[C@H]1[C@@H](c2ccc(C#CC3(O)CCCC3)cc2)[C@H]2CN(Cc3cncnc3)CCCCN21` here?
A: Its viability index is 1.01 ± 0.036.

Q: With `COc1ccccc1NC(=O)N1CC(=O)N2[C@H](CO)[C@@H](c3ccc(C#CC(C)C)cc3)[C@@H]2C1` as the compound, how does the viability index read?
A: The viability index was 1.08 ± 0.044.

Q: How did the viability index turn out when `CC[C@H]1C/C=C\C[C@@H](c2ccc(OC)cc2OC)NC(=O)[C@H](C)CC(=O)N1` was run?
A: Its viability index is 1.1 ± 0.076.

Q: For `C/C=C/c1ccccc1[C@H]1[C@H](C#N)N(C(C)=O)[C@H]1CO`, which viability index is on record?
A: The viability index was 1.03 ± 0.12.

Q: For `N#C[C@@H]1[C@H](c2ccc(C3=CCCCC3)cc2)[C@@H](CO)N1C(=O)CN1CCOCC1`, which viability index is on record?
A: Its viability index is 1.14 ± 0.016.

Q: How did the viability index turn out when `COc1ccccc1NC(=O)N1C[C@@H]2N[C@H](C1)[C@@H]2c1ccc(/C=C/c2ccccc2)cc1` was run?
A: Its viability index is 0.571 ± 0.027.

Q: For `COc1cccc(CN2[C@@H]3CNC[C@H]2[C@@H]3c2ccc(-c3ccc(C#N)cc3)cc2)c1`, which viability index is on record?
A: The viability index was 1.06 ± 0.054.

Q: `COCC(=O)N1C[C@@]2(C1)CN([C@@H](CO)c1c2c2ccc(OC)cc2n1C)C(=O)NC1CCCC1` was tested. Which viability index did it give?
A: The viability index was 0.975 ± 0.15.

Q: With `C[C@H]1CN([C@@H](C)CO)C(=O)c2cc(C#Cc3ccccc3)cnc2O[C@H]1CN(C)C(=O)c1ccccc1` as the compound, how does the viability index read?
A: The viability index was 0.572 ± 0.14.

Q: For `CCNC(=O)[C@@H]1[C@@H](CO)[C@@H]2Cn3c(ccc(-c4ccncc4)c3=O)[C@@H]2N1Cc1cc(F)ccc1F`, which viability index is on record?
A: Its viability index is 1.06 ± 0.019.

Q: Which viability index does the source give for `C[C@H]1CC(=O)NCC/C=C\C[C@H](c2cccc(Cl)c2)NC1=O` here?
A: Its viability index is 1.06 ± 0.052.
